Results taken from the RNAGym collection of RNA variant scans (doi:10.7554/elife.90254).
The source gives no read counts; variants with many changes may rest on few reads.

B1: LINE1-mini (parent)
chain: GGCAGAGCUCAACACAGCGUGGCAAAGUGGCUGUGGCUAGACUGCC

Variants of: B1
Test: self-cleavage, relative activity (ratio to wild type); higher = more cleavage; in vitro, sequencing; the parent is a self-cleaving ribozyme

Row | Variant | self-cleavage
1 | C15U G17A G27A | 0.33
2 | C15U G17A G36U U43G | 0
3 | C15U G17A G40U | 0.22
4 | C15U G17C A24U | 0.06
5 | C15U G17C C23A A26U G27A G40U | 0.02
6 | C15U G17C C46A | 0.05
7 | C15U G17C G19U G40U | 0.01
8 | C15U G17U C18G C23G | 0.04
9 | C15U G17U C46U | 0.04
10 | C15U G17U G27U | 0.09
11 | C15U G19A A25G U34C A39C | 0.01
12 | C15U G19A G30A | 1.27
13 | C15U G19A U32A C42A | 0.04
14 | C15U G19C G27C | 1.2
15 | C15U G19C G27U G36U | 0.07
16 | C15U G19C G35A G40U C46U | 0.09
17 | C15U G19C U28C G40A C46U | 0.08
18 | C15U G19U C42A G44A | 1.34
19 | C15U G19U G22C C37U | 0.1
20 | C15U G19U G35U | 0.03
21 | C15U G21C A24U G40U U43G | 0.14
22 | C15U G21C A41G | 0.24
23 | C15U G21C C46A | 0.48
24 | C15U G21C G22A | 2.78

Row | Variant | self-cleavage
25 | C15U G21C G30C A41C | 0.03
26 | C15U G21C G35U A41C | 0.01
27 | C15U G21U C23A | 0.19
28 | C15U G21U C46U | 0.53
29 | C15U G21U G36A | 0.12
30 | C15U G22A G30A G35U G36C U43C | 0.02
31 | C15U G22A G33C | 0.11
32 | C15U G22C C45A | 0.08
33 | C15U G22C C46U | 0.17
34 | C15U G22C U38A A39C | 0.1
35 | C15U G22U C31U | 0.07
36 | C15U G22U C37A A41G | 0.01
37 | C15U G22U U43A | 0.1
38 | C15U G22U U43A C46A | 0.03
39 | C15U G27A G33A | 2.03
40 | C15U G27A U34G A41C | 0.03
41 | C15U G27C C45G | 0.11
42 | C15U G27U G40U | 0.09
43 | C15U G29A G30A | 0.3
44 | C15U G29C C37G U43G | 0.02
45 | C15U G29U A39C | 0.11
46 | C15U G29U G30U G44A | 0.01
47 | C15U G30A C31U | 0.07
48 | C15U G30A G33C A39G | 0.09

Row | Variant | self-cleavage
49 | C15U G30A G36U U38A | 0.17
50 | C15U G30C C37G C46A | 0
51 | C15U G30U U32A | 0.03
52 | C15U G33A G35C C37U U38C | 0.02
53 | C15U G33A G44C | 0.53
54 | C15U G35A G44C | 0.03
55 | C15U G35U C42A | 0.05
56 | C15U G36A U43A | 0.05
57 | C15U G36C U38A C42A | 0.02
58 | C15U G36U G44A | 0.11
59 | C15U G36U U38G | 0
60 | C15U G36U U43A | 0.19
61 | C15U G36U U43A G44A | 0.26
62 | C15U G40U C46A | 0.06
63 | C15U G44U C46G | 0.04
64 | C15U U20A A26G | 0.56
65 | C15U U20A C31G | 0.01
66 | C15U U20C C31U | 0.12
67 | C15U U20C G27U A41C | 0.04
68 | C15U U20C U38G | 0.01
69 | C15U U20G C37G C45G | 0.04
70 | C15U U20G C46G | 0.24
71 | C15U U28A G29A G30C G36C | 0.04
72 | C15U U28A G29C C45U | 0.78

Row | Variant | self-cleavage
73 | C15U U28A G30A | 0.21
74 | C15U U28A U43C | 0.06
75 | C15U U28C G40U | 0.2
76 | C15U U28C U34A | 0.01
77 | C15U U28G U32C | 0.12
78 | C15U U32A G33C | 0.03
79 | C15U U32A G40C | 0.02
80 | C15U U32C U38C | 0.04
81 | C15U U32G C46G | 0.03
82 | C15U U32G G33U | 0.05
83 | C15U U32G G35A G36C G40C | 0.1
84 | C15U U34A C37U | 0.05
85 | C15U U34C C42G | 0.18
86 | C15U U43G G44C | 0.12
87 | A16C A24C G30C | 0.01
88 | A16C A24C G35U | 0.01
89 | A16C A24G A25C U28G A39C G40U | 0
90 | A16C A24G A39G | 0.14
91 | A16C A24G C42A C46A | 0.01
92 | A16C A24G G27C G44U | 0.02
93 | A16C A24G G36C | 0.01
94 | A16C A24U A25C A26U C42U | 0.01
95 | A16C A24U C37U | 0.07
96 | A16C A24U G40A U43C | 0.03

Row | Variant | self-cleavage
97 | A16C A24U G40U | 0.03
98 | A16C A25C U28A C42A | 0.07
99 | A16C A25U G29U | 0.41
100 | A16C A26C A39G | 0.04
101 | A16C A26C C37A | 0.04
102 | A16C A26C C37U A41U | 0.02
103 | A16C A26C G30U | 0.1
104 | A16C A26C G35U G40C | 0
105 | A16C A26C G36U G44A | 0.03
106 | A16C A39C C45A | 0.01
107 | A16C A39G G40C U43A | 0.04
108 | A16C C18A C42G | 0.01
109 | A16C C18A G21C | 0.06
110 | A16C C18A G21U | 0.08
111 | A16C C18A G30C C42G | 0.02
112 | A16C C18G G22U C23U C45G | 0.04
113 | A16C C18G G36U | 0.15
114 | A16C C18U C37G C45A | 0.02
115 | A16C C18U C42A | 0.02
116 | A16C C18U G19A | 0.11
117 | A16C C18U G19U G29C C31A G33U | 0.04
118 | A16C C18U G21U A39C | 0.04
119 | A16C C18U G22C C42A | 0.04
120 | A16C C18U G29C | 0.3

Row | Variant | self-cleavage
121 | A16C C18U G30C G44A | 0.09
122 | A16C C18U G33C U38G A39U C46U | 0.02
123 | A16C C18U G33U G36C C42A | 0
124 | A16C C18U U20G G44U | 0.02
125 | A16C C18U U38A C46A | 0.03
126 | A16C C23A G29U C31U | 0.02
127 | A16C C23A G35C | 0.05
128 | A16C C23A G35C G40U | 0.04
129 | A16C C23G C37G G44A | 0
130 | A16C C23U C42A | 0.05
131 | A16C C23U C42U | 0.06
132 | A16C C23U G33A G36A | 0.04
133 | A16C C23U G33C | 0.04
134 | A16C C23U U32G C45A | 0.22
135 | A16C C23U U32G G35C G44U | 0.02
136 | A16C C31A C42A | 0.05
137 | A16C C31G C46U | 0.02
138 | A16C C31G G33U | 0.01
139 | A16C C31U U32C | 0.03
140 | A16C C37G A39U A41C | 0
141 | A16C C37G C42U | 0.03
142 | A16C C37G U38A | 0.05
143 | A16C C37G U38A C45U | 0.03
144 | A16C G17A C18A U20A | 0.04

Row | Variant | self-cleavage
145 | A16C G17A C18G U38G | 0.01
146 | A16C G17A C23U G33U G40U | 0.02
147 | A16C G17A G27U U32A G33U G36C A39G | 0.01
148 | A16C G17A G30U G33A G35A A39U | 0.03
149 | A16C G17A G36A | 0.05
150 | A16C G17C C31G G35A | 0.02
151 | A16C G17C C31G G40U | 0.03
152 | A16C G17C G27C | 0.05
153 | A16C G17C G30C | 0.14
154 | A16C G17C G33A | 0.06
155 | A16C G17C U28C | 0.12
156 | A16C G17U G21U | 0.07
157 | A16C G17U G27U | 0.19
158 | A16C G17U U38A C46G | 0.04
159 | A16C G19A C23A G40U | 0.05
160 | A16C G19A G22C U38C | 0.02
161 | A16C G19A G27A C31A U43A | 0.07
162 | A16C G19A G30U G44A | 0.01
163 | A16C G19A G35C | 0.02
164 | A16C G19C U20G A25C G35A | 0.07
165 | A16C G19U G36A | 0.12
166 | A16C G19U U28A U34G | 0.03
167 | A16C G21A C23G C42U | 0.05
